# Certain results were filed several times, with different values. This list holds those alone. The rule behind the calls is not given here. There may be further records. Values that stand side by side are repeats (runs, samples, wells, individuals or studies). Brackets tell where a record comes from. Letters hold for one entry only.
# Tested on: CCRIS mutagenicity, Ames/micronucleus/aberration tests
# Assay: CCRIS mutagenicity studies
# [1] = Test System: AMES SALMONELLA TYPHIMURIUM, Strain/Indicator: TA98, Metabolic Activation: NONE, Method: STANDARD PLATE
# [2] = Test System: AMES SALMONELLA TYPHIMURIUM, Strain/Indicator: TA100, Metabolic Activation: NONE, Method: STANDARD PLATE
smiles,measurement,setting,value
c1ccc2c(c1)cc1ccc3cccc4ncc2c1c34,mutagenic call,[1],"inactive; negative [study A, 0.1 to 50 µg/plate] and active; positive [study B, 0 to 50 µg/plate]"
same,mutagenic call,[2],"inactive; negative [study A, 0.1 to 50 µg/plate] and active; positive [study B, 0 to 50 µg/plate]"
c1cc2ccc3cccc4ccc(c1)c2c34,mutagenic call,"Test System: AMES SALMONELLA TYPHIMURIUM, Strain/Indicator: TA100, Metabolic Activation: RAT, LIVER, S-9, AROCLOR 1254, Method: STANDARD PLATE",inactive; negative [study A] and active; positive [study B]
O=C1C(Cl)=C(Cl)C(=O)c2ccccc21,mutagenic call,"Test System: AMES SALMONELLA TYPHIMURIUM, Strain/Indicator: TA100, Metabolic Activation: NONE, Method: PREINCUBATION",active; positive [study A] and inactive; negative [study B]
Cc1ccc2nc3c(cc2c1)-c1cccc2cccc-3c12,mutagenic call,[1],"inactive; negative [sample A, 25 to 100 µg/plate] and active; positive [sample B, 2.5 to 10 µg/plate]"
same,mutagenic call,"Test System: AMES SALMONELLA TYPHIMURIUM, Strain/Indicator: TA98, Metabolic Activation: RAT, LIVER, S-9, Method: STANDARD PLATE","inactive; negative [sample A, 25 to 100 µg/plate] and active; positive [sample B, 2.5 to 10 µg/plate]"
same,mutagenic call,[2],"inactive; negative [sample A, 25 to 100 µg/plate] and active; positive [sample B, 2.5 to 10 µg/plate]"
same,mutagenic call,"Test System: AMES SALMONELLA TYPHIMURIUM, Strain/Indicator: TA100, Metabolic Activation: RAT, LIVER, S-9, Method: STANDARD PLATE","inactive; negative [sample A, 25 to 100 µg/plate] and active; positive [sample B, 2.5 to 10 µg/plate]"
O=C1C=Cc2ccccc2C1=O,mutagenic call,"Test System: AMES SALMONELLA TYPHIMURIUM, Strain/Indicator: TA102, Metabolic Activation: NONE, Method: PREINCUBATION",inactive; negative [study A] and active; positive [study B]
O=C1OC(O)C(C(Cl)Cl)=C1Cl (stereo unspecified),mutagenic call,"Test System: CHINESE HAMSTER V-79, Strain/Indicator: V-79/6-THIOGUANINE, Metabolic Activation: NONE",active; positive [0.5 to 5 µg/mL] and inactive; negative [2 to 50 µg/mL]
COS(C)(=O)=O,mutagenic call,"Test System: AMES SALMONELLA TYPHIMURIUM, Strain/Indicator: TA1535, Metabolic Activation: NONE, Method: PREINCUBATION","active; positive [study A, 0 to 12 µmol/plate] and inactive; negative [study B] and active; positive [study C, 0 to 12 µmol/plate]"

# Reference: PubChem BioAssay AID1259407 (Chemical Carcinogenesis Research Information System (CCRIS), 2018)
